From PubChem BioAssay AID1240 (Sanford-Burnham Center for Chemical Genomics, 2008)
The campaign covered roughly 50,000 compounds. About 800 (1.6%) showed an effect of 50% or more. The list shows a part of the results.

What follows are compounds tested against Bcl-2-like protein 10 (Homo sapiens) (UniProt Q9HD36) (assay: TR3 peptide-Bcl-B binding displacers, biochemical primary FP assay, phenotype converters (AID 1240;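 further: 0% = Bcl-B with tracer peptide and DMSO and 100% = tracer peptide lacking Bcl-B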)). Settings: GST-Bcl-B / FITC-TR3 peptide fluorescence polarization; stronger effect = higher value; compound at 3.75 mg/L.
UniProt Q9HD36, sequence (Q9HD36 whole entry, looked up): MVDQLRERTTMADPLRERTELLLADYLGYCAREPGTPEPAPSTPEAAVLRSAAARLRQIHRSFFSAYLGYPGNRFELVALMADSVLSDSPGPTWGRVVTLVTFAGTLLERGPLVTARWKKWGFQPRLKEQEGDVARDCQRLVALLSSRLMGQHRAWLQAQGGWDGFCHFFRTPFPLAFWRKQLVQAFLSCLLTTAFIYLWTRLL

| SMILES | displacement [%] |
| --- | --- |
| O=C(/C=C/c1cccc([N+](=O)[O-])c1)Nc1cccc(-c2nc3cc(Cl)ccc3o2)c1 | 33.9 |
| C/C(=N\N=C1\NC(=O)C(CC(=O)Nc2ccccc2C)S1)c1ccc(F)cc1 (stereo not drawn) | 12.3 |
| CCC(C)NC(=O)CN(c1ccc(Oc2ccccc2)cc1)S(C)(=O)=O (stereo not drawn) | -11.5 |
| CCOC(=O)c1cc(-c2ccc(I)cc2)nc2ccccc12 | -10.1 |
| COc1cc(/C=C2/C(=O)NN(c3ccccc3)C2=O)ccc1O | -33.9 |
| COc1ccc(N2C(=O)CC(Sc3nc4ccccc4s3)C2=O)cc1 (stereo not drawn) | -30.1 |
| O=C1C(=O)N(c2ccccc2)C(c2ccccc2)/C1=C(\O)c1ccc(Br)cc1 (stereo not drawn) | -1 |
| COc1ccc(NC(=O)COc2ccc(-c3ccc(C)cc3)cc2)cc1 | -6.3 |
| CNc1nnc(SCc2c(F)cccc2Cl)s1 | -1.9 |
| O=C(CCc1ccccc1)ONC(=O)c1ccc(Cl)cc1 | 10.5 |
| Cc1cnn(-c2cc(N/N=C/c3ccccc3)ncn2)c1 | -10.9 |
| Cc1ccc2c(Cl)c(C(=O)Nc3cccc(C(F)(F)F)c3)sc2c1 | 5.4 |
| COc1cc(OC)c(OC)cc1CN1CCN(C(=O)c2ccc(-c3ccccc3)cc2)CC1 | -13.2 |
| Cc1ccc(OCCCCN2CCC(C)CC2)c(Cl)c1 | -6.9 |
| COc1ccc(Br)cc1/C=N/OC(C)=O | 0.6 |
| C/C(=N\NC(=O)c1cc(-c2cccc([N+](=O)[O-])c2)n[nH]1)c1ccccc1O | -38.6 |
| CCc1cccc(C)c1NC(=O)CCOc1ccccc1 | -8.1 |
| COc1ccc(CCN2C(=O)CC(N3CCN(C/C=C\c4ccccc4)CC3)C2=O)cc1OC (stereo not drawn) | -8 |
| N#C/C(=C\c1ccc(-c2ccc(S(N)(=O)=O)cc2)o1)C(N)=O | -12.2 |
| Cc1cc(=O)oc2c(C)c3occ(-c4ccccc4)c3cc12 | 8.7 |
| COc1ccc(-c2cc(C(=O)Nc3ccc(F)cc3)c3ccccc3n2)cc1OC | -13.4 |
| O=[N+]([O-])c1ccc(NCCNS(=O)(=O)Cc2ccccc2)cc1 | -7.8 |
| COc1ccccc1OCC(=O)Nc1ccc(S(N)(=O)=O)cc1 | 6.7 |
| O=C(c1ccc(Br)o1)N1CCN(c2ccc(Cl)cc2)CC1 | 6.8 |
| CCOc1ccc(C2CC(=O)NC(SCC#N)=C2C#N)cc1OC (stereo not drawn) | -8.9 |
| CCOc1ccc(N2C(=O)/C(=C/c3ccc(-c4ccc([N+](=O)[O-])cc4C)o3)C(=O)NC2=S)cc1 | -5.3 |
| COc1cc(NS(=O)(=O)c2cc(Cl)ccc2Cl)c2ncccc2c1 | -2.6 |

| SMILES | displacement [%] |
| --- | --- |
| CCC(=O)c1ccc(N2CCN(C(=O)c3ccccc3Br)CC2)c(F)c1 | -13.4 |
| COc1ccc(C2C3C(=O)N(c4ccc(F)cc4)C(=O)C3ON2c2ccccc2)cc1 (stereo not drawn) | -3.7 |
| CCCc1c(C)[nH]c2ccc(NC(C)=O)cc2c1=O | -1.3 |
| O=C(Nc1ccc(-c2ccccc2)cc1)c1cccnc1 | 1.2 |
| O=C(Nc1ccc(Cc2ccc(NC(=O)C(F)(F)F)c(Cl)c2)cc1Cl)C(F)(F)F | -2.5 |
| COC(=O)C1=C(C(=O)OC)SC(=C2C(=S)C(C)(C)N(C(=O)c3cccc(F)c3)c3c(OC)cccc32)S1 | 9.1 |
| O=C(Nc1nc(-c2ccc3ccccc3c2)cs1)c1ccc(Cl)cc1[N+](=O)[O-] | -0.8 |
| O=C(Nc1ccc(OC(F)(F)F)cc1)c1ccc(OCc2ccccc2)cc1 | -18.3 |
| O=C(CC1Sc2ccccc2NC1=O)Nc1ccc(OC(F)F)cc1 (stereo not drawn) | -5.2 |
| COc1ccc(CCNC(=O)c2ccc3c(c2)OCO3)cc1OC | 5.4 |
| CCOC(=O)c1cc2c(nc1NC(=S)Nc1ccccc1)CC(C)(C)OC2 | 11 |
| CCSc1nnc(-c2ccc(OC)cc2)c2ccccc12 | -7.7 |
| O=C(NCC1(c2ccccc2)CCOCC1)C1COc2ccccc2O1 (stereo not drawn) | -8.6 |
| O=C(CSc1nc2sc3c(c2c(=O)[nH]1)CCCC3)NCCCO | -11.4 |
| Cc1ccccc1NC1=C(Cl)C(=O)N(c2cccc(C)c2C)C1=O | 13.8 |
| O=C(N/N=C/c1ccc(OC(=O)c2ccc(Br)cc2)cc1)c1cccc([N+](=O)[O-])c1 | 7.8 |
| O=C(/C=C/c1cn(-c2ccccc2)nc1-c1ccccc1)N1CCOCC1 | 7.3 |
| COc1ccc(-c2csc(NC(=O)c3cccc(Cl)c3)c2C(=O)O)cc1 | 3.2 |
| COc1cc(/C=C2/C(=O)NN(c3ccc(C)c(C)c3)C2=O)cc(I)c1O | -75 |
| CCCOc1ccc(C(=O)Nc2cccc(C(C)=O)c2)cc1 | -10.6 |
| Cc1c(C(=O)Nc2cccc(S(N)(=O)=O)c2)oc2ccc(Cl)cc12 | -1.9 |
| O=C1/C(=C\c2ccc(-c3ccc([N+](=O)[O-])cc3Br)o2)SC(=S)N1c1ccccc1 | 17.4 |
| COc1cc(C2C3=C(CC(C)(C)CC3=O)OC3=C2C(=O)CC(C)(C)C3)cc(OC)c1OC(C)=O | -1.3 |
| Cc1ccc(Cl)c(OCCCCN2CCOCC2)c1 | -12.1 |
| Brc1ccc(CC(Cc2nc3ccccc3[nH]2)c2nc3ccccc3[nH]2)cc1 (stereo not drawn) | -6.3 |
| CNC(=O)C(=O)NCCc1ccc(Cl)cc1 | 11.6 |
